In assay [1] the target is T1, IL-11Rα (recombinant, extracellular domain fused to the Fc region of human IgG) (human) (UniProt Q14626).
T1 sequence: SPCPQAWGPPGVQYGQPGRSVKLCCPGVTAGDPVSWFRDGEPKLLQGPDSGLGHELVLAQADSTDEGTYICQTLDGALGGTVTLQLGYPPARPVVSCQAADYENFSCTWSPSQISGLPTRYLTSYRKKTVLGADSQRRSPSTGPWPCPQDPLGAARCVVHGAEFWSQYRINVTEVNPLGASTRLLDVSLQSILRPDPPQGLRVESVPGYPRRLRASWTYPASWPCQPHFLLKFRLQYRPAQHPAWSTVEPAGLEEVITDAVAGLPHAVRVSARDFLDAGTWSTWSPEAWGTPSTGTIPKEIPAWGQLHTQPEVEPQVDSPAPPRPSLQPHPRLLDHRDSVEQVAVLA
Description: condition: 10^9 TU of phage; − is a ratio of binding to IL-11Rα/binding to BSA <6; phage binding assay; alanine-scanning phage on immobilized IL-11Rα, done as a1; result given as grade of the ratio binding to IL-11Rα / binding to BSA; in duplicate, repeated at least four times; only the target purified.

Protein sequences, listed by entry. Tags and fused reporters are not part of them. Residues count along the entry.
UniProt P02769, residues 25-607: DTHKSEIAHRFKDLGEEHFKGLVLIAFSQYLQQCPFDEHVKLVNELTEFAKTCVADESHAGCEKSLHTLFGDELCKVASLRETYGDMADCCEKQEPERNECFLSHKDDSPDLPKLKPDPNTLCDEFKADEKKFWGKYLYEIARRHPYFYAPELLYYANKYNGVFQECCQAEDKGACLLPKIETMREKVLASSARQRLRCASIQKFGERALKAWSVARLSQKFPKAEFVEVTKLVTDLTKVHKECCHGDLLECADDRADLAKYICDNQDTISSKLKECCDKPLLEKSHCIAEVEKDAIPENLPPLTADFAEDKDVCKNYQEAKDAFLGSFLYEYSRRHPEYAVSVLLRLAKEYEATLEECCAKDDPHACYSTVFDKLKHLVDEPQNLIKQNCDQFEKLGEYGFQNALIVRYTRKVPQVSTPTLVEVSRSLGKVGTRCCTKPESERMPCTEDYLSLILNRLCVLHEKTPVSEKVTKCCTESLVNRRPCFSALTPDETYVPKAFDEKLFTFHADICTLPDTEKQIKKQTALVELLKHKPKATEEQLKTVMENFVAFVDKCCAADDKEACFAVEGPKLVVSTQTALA
UniProt P40189, residues 23-619: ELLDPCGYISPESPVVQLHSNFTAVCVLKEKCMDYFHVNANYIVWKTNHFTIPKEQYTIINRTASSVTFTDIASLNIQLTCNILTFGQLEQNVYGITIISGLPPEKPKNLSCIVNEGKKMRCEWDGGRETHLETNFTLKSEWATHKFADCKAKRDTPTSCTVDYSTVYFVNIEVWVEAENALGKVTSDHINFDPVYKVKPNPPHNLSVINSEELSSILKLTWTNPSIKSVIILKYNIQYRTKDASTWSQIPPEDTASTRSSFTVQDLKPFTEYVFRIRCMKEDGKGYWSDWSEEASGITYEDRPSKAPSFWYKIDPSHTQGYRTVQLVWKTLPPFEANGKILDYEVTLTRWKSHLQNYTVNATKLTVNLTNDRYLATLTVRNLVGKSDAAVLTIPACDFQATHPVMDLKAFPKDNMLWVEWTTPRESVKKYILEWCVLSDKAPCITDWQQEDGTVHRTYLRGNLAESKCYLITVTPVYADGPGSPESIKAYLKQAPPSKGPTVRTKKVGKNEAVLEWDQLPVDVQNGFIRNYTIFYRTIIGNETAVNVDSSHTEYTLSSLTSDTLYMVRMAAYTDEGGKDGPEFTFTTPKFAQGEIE
UniProt P48357, residues 22-839: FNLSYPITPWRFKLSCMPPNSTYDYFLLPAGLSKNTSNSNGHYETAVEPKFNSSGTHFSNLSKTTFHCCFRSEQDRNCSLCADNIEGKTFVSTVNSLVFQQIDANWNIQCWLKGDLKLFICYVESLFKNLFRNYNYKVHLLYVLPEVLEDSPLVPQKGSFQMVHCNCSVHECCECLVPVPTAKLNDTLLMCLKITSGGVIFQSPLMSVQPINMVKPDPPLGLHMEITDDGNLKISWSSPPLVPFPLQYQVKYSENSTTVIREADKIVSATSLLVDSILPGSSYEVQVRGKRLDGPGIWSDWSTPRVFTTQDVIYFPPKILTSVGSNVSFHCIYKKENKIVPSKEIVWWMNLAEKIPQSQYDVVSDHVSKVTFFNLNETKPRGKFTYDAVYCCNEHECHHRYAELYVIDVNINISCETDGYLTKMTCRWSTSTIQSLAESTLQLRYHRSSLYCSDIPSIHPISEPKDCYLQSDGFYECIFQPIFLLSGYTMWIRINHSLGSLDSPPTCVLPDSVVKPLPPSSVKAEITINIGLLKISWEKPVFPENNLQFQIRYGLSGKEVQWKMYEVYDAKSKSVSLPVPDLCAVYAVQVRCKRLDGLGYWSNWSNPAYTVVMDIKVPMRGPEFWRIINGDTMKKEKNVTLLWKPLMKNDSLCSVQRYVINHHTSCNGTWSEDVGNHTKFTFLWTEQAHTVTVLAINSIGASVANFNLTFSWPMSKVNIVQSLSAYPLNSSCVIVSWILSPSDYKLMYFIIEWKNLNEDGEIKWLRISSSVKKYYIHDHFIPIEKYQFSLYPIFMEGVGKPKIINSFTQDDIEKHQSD

The target in assay [2] is T1, IL-11Rα (recombinant, extracellular domain fused to the Fc region of human IgG) (human). Description: phage binding assay; alanine-scanning phage on immobilized IL-11Rα, done as a1; result given as grade of the ratio binding to IL-11Rα / binding to BSA; in duplicate, repeated at least four times; only the target purified.
The target is the same in assay [3]. Description: phage binding assay; competition: …-phage on immobilized IL-11Rα with rising concentrations of the cognate synthetic peptide; only the target purified.
For assay [4] the target is unchanged. The assay can be described thus: phage binding assay; proteins immobilized (2 µg/ml) on microtiter wells overnight at 4°C, blocked with 3% BSA in PBS, incubated with 10^9 TU of phage for 1 h at room temperature, washed twelve times with PBS; bound phage recovered by bacterial infection; only the target purified.
Assay [5] deals with bovine serum albumin (bovine) (UniProt P02769). The assay is described as above.
Assay [6] has as its target gp130 (recombinant, extracellular domain fused to the Fc region of human IgG) (UniProt P40189). Described as above.
In assay [7] the target is leptin receptor (extracellular domain fused to the Fc region of human IgG) (UniProt P48357). Described as above.
Assay [8] deals with synthetic cyclic peptide …. The assay can be described thus: NMR titration; 1D-1H-NMR spectra of the peptide alone at increasing concentrations up to 400 µM, 25°C; test for oligomerization; both purified.

No constants are given. Whether binding was seen depends on the method and setting. Some entries that bind do so weakly or less than the wild type. For some assays here: Where a sequence is shown, tags or fusion partners need not be part of it.

B1: … phage (Gly^7 to Ala mutant of the … phage) (peptide)
peptide: CGRRAGASC
B1: the binding result in assay [1] was “no binding”.

B2: CGARAGGSC phage (Arg^3 to Ala mutant of the … phage) (peptide)
peptide: CGARAGGSC
notes: source: phage display, cloned into SfiI-digested fUSE5 vector
For the molecule B2, in assay [2], the binding entry is reported as “binds”.

B3: CGRRAAGSC phage (Gly^6 to Ala mutant of the … phage) (peptide)
peptide: CGRRAAGSC
notes: as for B2
On to B3, for which the binding entry in assay [2] is listed as “binds”.

B4: … phage (Gly^2 to Ala mutant of the … phage) (peptide)
peptide: CARRAGGSC
For B4, the binding result in assay [2] is recorded as “binds”.

B5: … phage (Ser^8 to Ala mutant of the … phage) (peptide)
peptide: CGRRAGGAC
Regarding B5, the binding result in assay [2] is “no binding (tested: 10^9 TU of phage)”.

B6: …-phage (phage displaying the peptide …) (peptide)
peptide: CGRRAGGSC
Turning to B6, the binding result is given as “binds” in assay [3]; “binds” in assay [2]; “binds” in assay [4]; “no binding (tested: 10^9 TU of phage)” in assay [5]; “no binding (tested: 10^9 TU of phage)” in assay [6]; “no binding (tested: 10^9 TU of phage)” in assay [7].

B7: synthetic cyclic peptide … (peptide)
peptide: CGRRAGGSC
modifications: cyclized (Cys-s-s-Cys)
Turning to B7, the binding entry in assay [8] is given as “no binding (tested: up to 400 µM)”.

B8: … phage (scrambled version of …) (peptide)
peptide: CRGSGAGRC
Regarding B8, the binding entry in assay [1] is reported as “no binding”.

B9: … phage (Arg^4 to Ala mutant of the … phage) (peptide)
peptide: CGRAAGGSC
For B9, the binding result in assay [1] is “no binding”.

The values above are taken from publication PMC2565473, “A Ligand Peptide Motif Selected from a Cancer Patient Is a Receptor-Interacting Site within Human Interleukin-11” (PLoS ONE, 2008).
